Reference: PubChem BioAssay AID463173 (ICCB-Longwood Screening Facility, Harvard Medical School, 2010)
In all, about 52,000 compounds went through this assay and about 4,300 (8.3%) were called active. Cut-off read from the data, not from the text of the source: active = survival mostly below about 52% (no sharp cut-off); inactive = mostly above about 56%. The list shows a part of the results.

System: DeltatarO mutant
Test: growth inhibition of S. aureus wild type versus tarO mutant, primary screen, teichoic acid synthesis inhibitors, RN4220, OD600 (AID 463173)
Details: OD600, 18 h, stronger effect = lower value, screened at 18.75 µg/mL (by protocol)

| Structure (SMILES) | survival |
| --- | --- |
| Cc1ccccc1Oc1nc2c(c(=O)n(C)c(=O)n2C)n1Cc1ccc(Br)cc1 | inactive: 143% |
| Cn1c(N2CCN(S(=O)(=O)c3ccc(Cl)cc3)CC2)nc2ccccc21 | inactive: 83% |
| CCC(NC(C)=O)c1ccccc1 (configuration not stated) | inactive: 71% |
| COc1cc(-c2nnc(SCC(=O)NC(C)C)o2)cc(OC)c1OC | inactive: 111% |
| CCOc1ccc(CCNC(=O)C2Cc3ccccc3N2C(=O)CC)cc1OCC (configuration not stated) | inactive: 93% |
| CC(=O)c1ccc(NC(=O)CSc2ccc3nc(-c4ccccc4)cn3n2)cc1 | inactive: 89% |
| CN(C)c1ccc(CNC(=O)C(Cc2ccccc2)NS(=O)(=O)c2ccc3c(c2)oc(=O)n3C)cc1 (configuration not stated) | inactive: 83% |
| Cc1ccc(N(CC(=O)Nc2ccc(Br)c(C)c2)S(=O)(=O)c2cccs2)cc1 | inactive: 69% |
| NC(=O)c1c(O)c2c([nH]c1=O)CCCC2 | inactive: 80% |
| COc1cccc(CCNc2ncnc3c2nnn3C)c1 | inactive: 83% |
| O=C(CCCn1c(=O)c2ccccc2n(CC(=O)Nc2ccc(F)cc2F)c1=O)NCc1ccccc1Cl | inactive: 97% |
| O=C(NCc1ccc(F)cc1)c1cc2c(s1)-c1ccccc1SC2 | active: 45% |
| COc1ccc(NC(=O)c2cc3c(=O)n(Cc4ccco4)ccc3nc2C)c(OC)c1 | inactive: 81% |
| CCCCOC(=O)c1ccc(NC(=O)/C(C#N)=C/c2ccc(-c3ccccc3)o2)cc1 | active: 32% |
| COc1cc2c(=O)n(CCC(=O)NCC3CCCO3)c(=O)n(CC(=O)Nc3c(C)cccc3C)c2cc1OC (configuration not stated) | inactive: 63% |
| COc1ccc(OC)c(NC(=O)C(CCSC)NS(=O)(=O)c2cccs2)c1 (configuration not stated) | inactive: 88% |
| COc1ccc(-c2nc(SCC(=O)N3CCC(C)CC3)n[nH]2)cc1 | inactive: 134% |
| COc1ccc(C(=O)Nc2ccc(C(=O)OCc3cc(=O)n4nc(C(C)C)sc4n3)cc2)cc1 | inactive: 94% |
| Cc1ccc(Cl)cc1NC(=O)/C(C#N)=C\c1cn(Cc2ccc(F)cc2)c2ccccc12 | inactive: 98% |
| CCOC(=O)c1c(S(=O)(=O)NCC(=O)NCc2ccc(C)cc2)c(C)n(C)c1C | inactive: 91% |
| Cc1ccccc1C(=O)Nc1ccc2nc(SCCOc3ccccc3)sc2c1 | inactive: 79% |
| Fc1ccc(CNc2cc(-c3ccccc3)nc3nncn23)cc1 | active: 17% |

| Structure (SMILES) | survival |
| --- | --- |
| N#Cc1cc2cc3c(cc2nc1SCC(=O)N1CCN(c2ccc(F)cc2)CC1)OCCO3 | inactive: 67% |
| CCc1ccc(CNC(=O)Cc2c(C(=O)O)c(C)cn2C)cc1 | inactive: 91% |
| CCc1nnc(SCc2nc(-c3ccccc3)oc2C)c2cc3sccc3n12 | inactive: 75% |
| Cc1ccc(C)c(NC(=O)Cn2c(=O)n(Cc3cccs3)c(=O)c3cccnc32)c1 | inactive: 66% |
| COc1ccc(-c2cn3nc(N4CCC(C(=O)Nc5cc(Cl)ccc5OC)CC4)sc3n2)cc1 | inactive: 74% |
| CC(C)(C)OC(=O)N1CCC(c2c(C(=O)N3CCN(c4ncccn4)CC3)cnn2-c2ccc(F)cc2F)CC1 | active: 6% |
| CCOC(=O)C1=C(CS(=O)(=O)c2ccc(C)c(C)c2)NC(=O)NC1c1ccccc1OCC (configuration not stated) | inactive: 73% |
| CCOc1ccc(NC(=O)Cn2c(=O)n(Cc3nc(-c4ccccc4)no3)c(=O)c3ccccc32)cc1 | inactive: 84% |
| O=C(Cn1c(=O)ccc2cc(S(=O)(=O)N3CCCC3)ccc21)NCc1ccc(F)cc1 | inactive: 107% |
| COc1ccc(N(CC(=O)N2CCN(c3cccc(OC)c3)CC2)S(=O)(=O)c2c(C)noc2C)cc1 | inactive: 71% |
| COc1cccc(C2Nc3ccccc3-c3nnc(SCc4ccccc4)nc3O2)c1OC (configuration not stated) | inactive: 140% |
| O=C(Nc1ccc(F)c(Cl)c1)C1CCCN1S(=O)(=O)c1ccc(F)cc1 (configuration not stated) | inactive: 76% |
| Cc1ccc(S(=O)(=O)c2nc(-c3ccccc3)oc2SCC(=O)NC2CCCCC2)cc1 | inactive: 166% |
| CCNC(=S)N1CCN(C(=O)c2ccco2)CC1 | inactive: 74% |
| COC(=O)c1ccc(OC2OCCOC2Oc2ccc(C(=O)OC)cc2)cc1 (configuration not stated) | inactive: 90% |
| COc1ccc(-n2ncc3c2ncn2nc(-c4ccc(Cl)cc4Cl)nc32)cc1 | inactive: 68% |
| COc1cccc(OC)c1Cn1nnc2c(=O)[nH]c(C3CCN(C(=O)c4ccccc4)CC3)nc21 | inactive: 56% |
| COc1cc(OC)c(NC(=O)c2ccc3c(Cl)c4c(nc3c2)CCCC4)cc1Cl | inactive: 85% |
| COc1ccc(CCNC(=O)CSCc2nc(-c3ccc(OC)c(OC)c3)oc2C)cc1OC | inactive: 69% |
| COCCNc1ccc(-c2nc(-c3cccc(C)c3)no2)cc1[N+](=O)[O-] | inactive: 81% |
| CN1C(=O)c2ccccc2Sc2ccc(NC(=O)COc3ccc(Cl)cc3)cc21 | inactive: 65% |
| O=C1CN(c2ccccc2)C(=S)N1C(=O)c1ccccc1 | inactive: 91% |

| Structure (SMILES) | survival |
| --- | --- |
| Nc1nc(SC#CC(F)(F)F)ns1 | active: 13% |
| CC1CCCN(C(=O)Cn2c(=O)n(CC3CCC(C(=O)NC(C)C)CC3)c(=O)c3sccc32)C1 (configuration not stated) | inactive: 120% |
| Cn1c(=O)n(CCCc2ccccc2)c(=O)c2c1nc1n2CCN1c1ccccc1 | inactive: 75% |
| CCOC(=O)c1scc(-c2ccc(C)cc2)c1S(=O)(=O)Nc1ccc(F)c(F)c1 | inactive: 82% |
| O=C(Nc1ccccc1)C1CCN(C(=O)c2cccs2)CC1 | active: 67% |
| COc1ccc2c(c1)c(=O)c(C(=O)c1ccc(Cl)cc1)cn2CC(=O)Nc1ccc2c(c1)OCO2 | inactive: 81% |
| CCN(Cc1ccccc1)C(=O)CCS(=O)(=O)c1ccc2c(c1)oc(=O)n2C | inactive: 122% |
| CCOC(=O)N1CCc2c(sc(NCc3sccc3C)c2C(=O)Nc2ccccc2OCC)C1 | inactive: 94% |
| CCOC(=O)c1ccc(NC(=O)CN2C(=O)CC(c3ccc(C)c(C)c3)=Nc3ccccc32)cc1 | inactive: 71% |
| Cc1c(Cl)cccc1NC(=O)NCCOCCn1c(=O)oc2ccccc21 | inactive: 51% |
| CCOc1ccc(CCNC(=O)c2ccc3c(c2)N(Cc2cccc(Cl)c2)C(=O)c2ccccc2S3(=O)=O)cc1OCC | inactive: 144% |
| Cc1cc(C)nc(SCC(N)=O)n1 | inactive: 93% |
| Cc1cc(NC(=O)CN2C(=O)CSc3ccc(S(=O)(=O)N(C)C)cc32)ccc1Br | inactive: 93% |
| CSc1ccc(CCNC(=O)c2ccc3c(c2)nc2n3CCOC2)cc1 | inactive: 79% |
| CCOC(=O)c1c(NC(=O)c2nc(SC)ncc2Cl)sc(C)c1C | inactive: 85% |
| COc1cccc(-c2ccnc3[nH]n(-c4ccccc4)c(=O)c23)c1 | inactive: 71% |
| Cc1ccc(-n2c(SCC(=O)N3CCC(C)CC3)nc3c([nH]c4ccccc43)c2=O)cc1 | active: -5% |
| CC(C)c1nnc(NC(=O)c2nc(S(=O)(=O)Cc3ccccc3)ncc2Cl)s1 | inactive: 46% |
| Cc1ccc(NC(=O)c2ccc(F)c(S(=O)(=O)N3CCc4ccccc4C3)c2)cc1F | inactive: 88% |
| COc1ccccc1CNC(=O)c1cc2c(=O)n(Cc3cccs3)ccc2nc1C | inactive: 83% |
| COc1ccc(Cl)cc1NC(=O)CSc1cn(CC(=O)N2CCCC2)c2ccccc12 | inactive: 83% |
| COc1cc(-c2noc(-c3cc(C)[nH]n3)n2)cc(OC)c1OC | inactive: 86% |

| Structure (SMILES) | survival |
| --- | --- |
| COc1cccc(NC(=O)C2CCN(S(=O)(=O)c3cc(-c4noc(C)n4)ccc3C)CC2)c1 | inactive: 122% |
| O=C(N=Nc1c(O)n(CN2CCCC2)c2ccccc12)c1ccccc1 | inactive: 103% |
| CCN1CCN(C(=O)c2cnn(-c3cccc(C)c3)c2C2CCN(C(=O)OC(C)(C)C)CC2)CC1 | inactive: 89% |
| COc1cccc(CNC(=O)c2cccn2-c2nnc(N3CCCC3)s2)c1 | inactive: 83% |
| CCn1cc(C(=O)N2CCN(c3ccccc3)CC2)c(=O)c2cc(S(=O)(=O)N3CCC(C)CC3)ccc21 | inactive: 81% |
| CCOc1ccc(NC(=O)c2cn3c4c(ccc(Cl)c4c2=O)OC(C)C3)cc1 (configuration not stated) | inactive: 84% |
| Cc1ccc(-c2noc(C3CC(=O)N(c4ccc5c(c4)OCCO5)C3)n2)cc1 (configuration not stated) | active: 46% |
| Nc1nc2ccc(CCC(=O)O)cc2s1 | inactive: 100% |
| COc1ccc(NC(=O)N(Cc2ccco2)C2CCN(C(C)=O)CC2)c(OC)c1 | inactive: 88% |
| COc1ccc(CNC(=O)C2CCN(S(=O)(=O)c3cn(C)cn3)CC2)cc1 | inactive: 105% |
| Cc1cc(-c2nc3ccccc3s2)ccc1NC(=O)c1cc(Cl)ccc1Cl | inactive: 59% |
| N#CC1=C(N)C(C#N)(C#N)C(c2cccs2)C2CN(C(=O)OCc3ccccc3)CC=C12 (configuration not stated) | inactive: 69% |
| COc1ccc2c(C)c(CCC(=O)NCc3ccc(OC)c(OC)c3)c(=O)oc2c1 | inactive: 103% |
| Cc1sc(NC(=O)COc2ccc(C(C)(C)C)cc2)c(C(=O)OC(C)C)c1C | active: 10% |
| CCOc1cc(C2c3c(oc4ccccc4c3=O)C(=O)N2Cc2ccccc2Cl)ccc1O (configuration not stated) | inactive: 85% |
| CCc1ccc(N2C(=O)CS(=O)(=O)C23C(=O)N(Cc2ccccc2F)c2ccccc23)cc1 (configuration not stated) | inactive: 93% |
| COc1ccc2[nH]c(=O)c(C(c3nnnn3Cc3ccccc3)N3CCCC3)cc2c1 (configuration not stated) | inactive: 89% |
| O=C(NCCCN1CCN(c2cccc(Cl)c2)CC1)c1nnc(Cc2ccc(F)cc2Cl)o1 | inactive: 56% |
| Cc1ccc(N2C(=O)C(CC(=O)Nc3ccccc3)N(CCC3=CCCCC3)C2=O)cc1 (configuration not stated) | inactive: 67% |
| Cc1ccc2nc(NC(=O)CSc3ncc(C(=O)Nc4ccccc4)c(=O)n3C)sc2c1 | inactive: 93% |
| CCc1ccc(S(=O)(=O)c2cnc(SCC(=O)Nc3ccc(OC)cc3OC)[nH]c2=O)cc1 | inactive: 65% |
